We go through 83 compounds from ChEMBL document CHEMBL1201862, “PubChem BioAssay data set” (2004).

Each structure is given as a SMILES string.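 Results reflect a 48-hour exposure of cells in 96-well plates to compound at five concentrations. Here, GI50 denotes the concentration required for 50% inhibition of growth.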 Calls of active or inactive are those of the source. No stated cut-off is given here; in the data, active = GI50 up to about 1.1 µM and inactive = higher. Bounds are passed on as bounds.

This experiment relates to NCI-H322M. Description: NCI tumour cell line growth inhibition, 48 h.
As to `CCCCCCCCCC(=O)OCC1(CO)C/C(=C/CC(C(C)C)C(C)C)C(=O)O1` (stereo not drawn), the GI50 is inactive: 66.8 µM.
As for `Cc1ccc(N2C(=O)C(=CN)C(=O)N(c3ccc(C)cc3)C2=O)cc1`, the GI50 is inactive: 59.2 µM.
As for `CCCn1cnc2c(SCC(=O)O)nc(N)nc21`, the GI50 was inactive: > 100 µM.
Turning to `COc1ccc2nc(-c3ccccn3)cc(O)c2c1`, the GI50 is inactive: 46.6 µM.
With `C=C1Cc2cc(OC)c(OC)c(OC)c2-c2ccc(SC)c(=O)cc21`, the GI50 is active: < 0.01 µM.
As to `Cc1nc2nn(C)cc2c(=O)n1/N=C/c1ccccc1`, the GI50 is inactive: > 100 µM.
For the compound `Cn1c2ccccc2c(=O)c2c(O)cc3c(c21)CC(C1(C)CO1)O3` (stereo not drawn), the GI50 was inactive: 11.5 µM.
As for `O=C1C(=C(C(=O)c2ccccc2)C(=O)c2ccccc2)OC(c2ccccc2)=C1C(=O)c1ccccc1`, the GI50 was inactive: 7.82 µM.
`C[N+](C)(C)CCOC(=O)/C=C/c1c[nH]cn1`: the GI50 is inactive: > 500 µM.
With `CC(C)(C)n1c(=O)n(C(=O)C(Cl)(Cl)Cl)n(C(=O)C(Cl)(Cl)Cl)c1=O`, the GI50 was inactive: > 100 µM.
Turning to `O=C1CCCC2COc3ccc(O)c1c32` (stereo not drawn), the GI50 is inactive: > 100 µM.
As for `CC(C)/C(Cl)=N/OC(=O)Nc1cccc(C(F)(F)F)c1`, the GI50 was inactive: 6.97 µM.
Take `[N-]=[N+]=NC1(c2ccccc2)C(=O)C(Cl)=C(c2ccccc2)N(c2ccccc2)C1=O` (stereo not drawn): the GI50 is inactive: > 100 µM.
`CN(CC1NCCCC1O)C12CC3CC(CC(C3)C1)C2` (stereo not drawn): the GI50 was inactive: > 100 µM.
With `CC(C)(C)c1ccc2c(c1)S(=O)(=O)Nc1cccc(c1)NS(=O)(=O)c1cc(C(C)(C)C)ccc1OCCOCCO2`, the GI50 was inactive: > 100 µM.
Consider `N#CSC#CCCC#CSC#N`, for which the GI50 was inactive: 21.2 µM.
In the case of `Cc1cc2c(cc1C)[n+]([O-])c(C(=O)CC(=O)C(=O)Nc1ccccc1C)c(C)[n+]2[O-]`, the GI50 is inactive: > 100 µM.
As for `COc1cc(/C=C2\N=C(c3ccccc3)N(c3nc4c(Cl)cc(Cl)cc4s3)C2=O)ccc1O`, the GI50 was inactive: 38.8 µM.
Next, `CC12NC(=C(C#N)C#N)C(C#N)=C3NC(N)=C(C#N)C(=C31)Oc1ccccc12` (stereo not drawn): inactive: 35.3 µM; `COc1ccc(OC)c(NC(=O)CCC/C(CC(=O)c2ccc(O)c(OC)c2)=N\Nc2ccc([N+](=O)[O-])cc2)c1`: inactive: > 100 µM.
In the case of `CC(NNC(=O)c1ccncc1)c1ccc(Cl)c(Cl)c1` (stereo not drawn), the GI50 was inactive: > 100 µM.
`CCN1C(=O)C(=C/C=C/c2ccc(N(CC)CC)cc2)C(=O)N(CC)C1=S`: the GI50 is inactive: > 100 µM.
`C=CCOCn1ccc(N)nc1=O`: the GI50 is inactive: > 100 µM.
Regarding `CCC(=O)C(C(C)/C=C/CCSc1ccccc1)C(O)CCCCCC(=O)OC` (stereo not drawn), the GI50 was inactive: > 100 µM.
As for `[N-]=[N+]=Nc1ccccc1C(=O)N1C(=O)c2ccccc2C(=O)N(C(=O)c2ccccc2N=[N+]=[N-])c2ccccc21`, the GI50 is inactive: > 100 µM.
`O=C1c2ccccc2C(=O)N1CCc1nc(-c2ccccc2)c[nH]1`: the GI50 is inactive: > 100 µM.
Take `Fc1nc(-c2c3ccccc3c3sc4ccccc4n23)nc(N2CCOCCOCCOCCOCC2)n1`: the GI50 was inactive: > 100 µM.
Regarding `O=C1c2ccccc2-n2c1nc1ccc(Cl)cc1c2=O`, the GI50 is inactive: > 100 µM.
For `C=C(CN(C)C)C(=O)c1ccc(Oc2ccccc2)cc1`, the GI50 is inactive: 28.4 µM.
Consider `O=[N+]([O-])c1cccc(-c2oc(/C=N/c3ccccc3)c([N+](=O)[O-])c2-c2cccc([N+](=O)[O-])c2)c1`, for which the GI50 was inactive: > 100 µM.
As to `N[C@@H](CCC(=O)NC(Cc1ccccc1)C(=O)NCP(=O)(O)O)C(=O)O` (stereo partly drawn), the GI50 was active: 0.0551 µM.
Regarding `Fc1cc(-c2ncc(Cl)cc2Cl)c2cccccc1-2`, the GI50 is inactive: > 100 µM.
For the compound `Cc1cc(CN2CCCCC2)c(O)c(CN2CCCCC2)c1`, the GI50 was inactive: > 100 µM.
For `Cc1n[nH]c(=O)n1/N=C/c1ccc(F)cc1` the value was inactive: > 100 µM; for `OC1COC(n2c3ccc(Br)cc3c3ccc4c5ccccc5[nH]c4c32)C(O)C1O` (stereo not drawn), inactive: 4.84 µM.
With `COc1ccc(C2N(NC(=O)c3ccncc3)C(=O)CS2(=O)=O)cc1F` (stereo not drawn), the GI50 was inactive: > 100 µM.
For `COC(=O)[C@H](Cc1ccccc1)NC(=O)/C(=C/C(C)C)NC(=O)[C@H](CCSC)NC=O`, the GI50 is inactive: 57.9 µM.
For the compound `Cc1ccc(/C=C/C(=O)C(C)C)cc1`, the GI50 is inactive: 92.9 µM.
For `CC(Cc1ccccc1)Nc1ncnc2c1ncn2C1OC(CO)CC1O` (stereo not drawn), the GI50 was inactive: > 100 µM.
For `COc1ccc2c(c1)C=C(C(C)(C)C)NS2(=O)=O`, the GI50 was inactive: > 100 µM.
As for `CCCCCCCCCCCC(=O)OCC1OC(n2cc(F)c(=O)[nH]c2=O)C(NC(=O)OCc2ccccc2)C(O)C1O` (stereo not drawn), the GI50 was inactive: 20.1 µM.
With `Cc1nc2ccccc2c(=O)n1NC(=O)c1ccccn1`, the GI50 was inactive: > 100 µM.
Turning to `O=Cc1ccc2c(c1)CC1(C2)Cc2ccc3c(c2C1)CCC3` (stereo not drawn), the GI50 was inactive: 16.9 µM.
For the compound `CCCCc1c2c(nc3c1CC/C(=C\c1ccc([N+](=O)[O-])cc1)C3=O)CCCC2`, the GI50 is inactive: 2.9 µM.
Consider `CC(=O)OCC1C(=O)OCC1C(=O)N1Cc2cc3ccccc3nc2C1` (stereo not drawn), for which the GI50 was inactive: 16.4 µM.
Take `C=C(C)C1CC/C(C)=C/CCC2(C)OC2CC/C(CO)=C\C1O` (stereo not drawn): the GI50 is inactive: > 100 µM.
`O=C(O)CC1OCC=C2C[N+]3([O-])CCC45c6ccccc6NC4C1C2CC53` (stereo not drawn): the GI50 is inactive: > 100 µM.
For `NCC(=O)NC1(c2cc3ccccc3s2)CCCCC1`, the GI50 was inactive: 37.9 µM.
On to `COc1ccc(C2C(C#N)=C(S)N(C3OC(CO)C(O)C(O)C3O)C(C)=C2C(C)=O)cc1` (stereo not drawn), for which the GI50 is inactive: > 100 µM.
Consider `COc1cc2c(c(OC)c1OC)-c1ccc(SC)c(=O)cc1C(CC(=O)Oc1ccccc1F)C2` (stereo not drawn), for which the GI50 is active: 0.065 µM.
With `CN(C)CCCn1cnc2cc(Cl)c(Cl)cc21`, the GI50 was inactive: > 100 µM.
For `Cc1c2c(n(Cc3ccccn3)c1C)NN=C(C#N)S2(=O)=O` the value was inactive: > 100 µM; for `Nc1cc(O)nc(SC2=NC(N)CC(O)C2)n1` (stereo not drawn), inactive: > 100 µM; for `Cc1ccc(C2=CC(=O)OC(C[P+](c3ccccc3)(c3ccccc3)c3ccccc3)(c3ccccc3)O2)cc1` (stereo not drawn), inactive: 17.4 µM.
On to `CC(C)=CCNc1nc(Cl)nc2[nH]cnc12`, for which the GI50 is inactive: 29 µM.
`O=C(c1ccccc1Cl)n1oc2ccccc2c1=O`: the GI50 was inactive: > 100 µM.
For `CC(=O)O[C@H]1/C(=C/c2ccncc2)C[C@H]2[C@@H]3CC=C4C[C@@H](N5CCCC5)CC[C@]4(C)[C@H]3CC[C@]12C`, the GI50 was inactive: 12.3 µM.
Regarding `CC(C)(C)c1cc(C#N)c2c(c1)C(=O)OC2(c1ccccc1)c1ccccc1C#N` (stereo not drawn), the GI50 was inactive: > 100 µM.
Consider `COC(=O)/C=C(/C=C1/C(C#N)=C(N)N(c2ccc(Cl)cc2)C1(C)/C(=C\C(=O)OC)C(=O)OC)C(=O)OC` (stereo not drawn), for which the GI50 was inactive: 45.4 µM.
For the compound `[N-]=[N+]=N/C1=C/CCCCC(=O)C1`, the GI50 is inactive: > 100 µM.
Consider `NC(=S)Nc1ccc(S(=O)(=O)Nc2ccc(S(N)(=O)=O)cc2)cc1`, for which the GI50 was inactive: > 100 µM.
For `Cc1[nH]c2ccccc2c1C1Cc2ccccc2N1C(=O)/C=C/C=C/c1ccccc1` (stereo not drawn) the value was inactive: > 100 µM.
With `COC(=O)[C@]12CSC[C@H]1C[C@H](c1ccc(N(C)C)cc1)N2`, the GI50 is inactive: > 100 µM.
Turning to `O=C1C=C(Br)C(=O)C(Br)=C1`, the GI50 was inactive: > 100 µM.
`CC(C)(C)NC(=O)NC12CC3CC(CC(F)(C3)C1)C2`: the GI50 is inactive: > 100 µM.
For the compound `CCC1(CC)N=C(C(F)(F)F)c2cc(C(=O)C(F)(F)F)c3ccccc3c2N1`, the GI50 is inactive: 21.9 µM.
For `O=c1[nH]c2c(Nc3c4ccccc4nc4ccccc34)c([N+](=O)[O-])c(Nc3c4ccccc4nc4ccccc34)c([N+](=O)[O-])c2[nH]1` the value was active: 0.942 µM; for `C[C@]12CC[C@H](O)CC1CCC[C@@H]2O` (stereo partly drawn), inactive: > 100 µM.
`O=C1C(O)=C(CN(CCCl)CCCl)C(=O)c2ccccc21`: the GI50 was inactive: 83 µM.
On to `COc1ccc(/C=N/N=C(\N)NO)c(O)c1`, for which the GI50 was inactive: > 10 µM.
Next, `CC(=O)c1c(P(=O)(OC(C)C)OC(C)C)nn(-c2ccc([N+](=O)[O-])cc2)c1C`: inactive: > 100 µM; `CCN1C(=O)N(C)C(O)c2c1nc1ccccn1c2=O` (stereo not drawn): inactive: 30.1 µM.
`Cn1c(=O)c2c(ncn2CCNC(CO)C(O)c2ccc([N+](=O)[O-])cc2)n(C)c1=O` (stereo not drawn): the GI50 was inactive: > 100 µM.
Turning to `CC1(C)OC(=O)C(C#N)=C1C[n+]1ccccc1`, the GI50 is inactive: > 10 µM.
For `CCN(/N=C1\CC2C=CCN(C2)C(=O)Cc2c1[nH]c1ccccc21)S(=O)(=O)c1ccc(C)cc1` (stereo not drawn), the GI50 is inactive: > 100 µM.
Next, `CC(=O)NC1C(O)C(O)C(CO)OC1n1nc(SCc2ccccc2)c(=O)[nH]c1=O` (stereo not drawn): inactive: > 100 µM; `CCOC1=C2N=C(Cc3ccc(F)cc3)NC2C(=O)c2ccccc21` (stereo not drawn): inactive: 27.4 µM; `COc1cccc(C2c3cc4c(cc3OC(NNS(=O)(=O)c3ccc(C)cc3)C2C)OCO4)c1O` (stereo not drawn): inactive: 32.1 µM.
`Brc1ccc2c(C3CN[C@@H](c4c[nH]c5cc(Br)ccc45)CN3)c[nH]c2c1` (stereo partly drawn): the GI50 was inactive: 3.52 µM.
On to `CC(C)(C)c1ccc(-c2nc3ccc(Cl)cc3c(=O)o2)cc1`, for which the GI50 was inactive: 29 µM.
For the compound `COc1cc(C(c2c(O)c3ccccc3oc2=O)c2c(O)c3ccccc3oc2=O)ccc1O`, the GI50 was inactive: 95.3 µM.
For `COc1cc2c(cc1OCCOS(C)(=O)=O)N=C[C@@H]1CCCN1C2=O`, the GI50 is inactive: > 100 µM.
With `COc1cc(/C=C/c2ccc(OC(C)=O)cc2)cc(OC)c1OC`, the GI50 was inactive: 49.9 µM.
